Reference: PubChem BioAssay AID504845 (National Center for Advancing Translational Sciences (NCATS), 2011)
In all, about 390,000 compounds went through this assay and about 150 (0.038%) were called active. The inconclusive results got no clear call from the source; some entries with a clear call stand among them for comparison. Calls come from the whole dose curve; as a rule, active = well fitted inhibition curve with a large enough effect; inconclusive = small, poorly fitted or top-dose-only effect; inactive = no such curve, though single readings can be large or run the other way. Potencies of inconclusive entries are doubtful fits and often do not repeat.

These molecules were tested against Regulator of G-protein signaling 4 (Homo sapiens) (UniProt P49798) (assay: Inhibitors of Regulator of G Protein Signaling (RGS) 4: qHTS). Settings: Transcreener GDP fluorescence polarization, RGS4-accelerated GTP hydrolysis; series mostly up to 114 µM; activity change, negative = inhibition: at the top concentration.
Outline: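 MLSMR compounds (23 nl, pin-transferred) preincubated 10 min at room temperature with a 500nM (2x) first reagent, then RGS4 at 900nM (2x) plus Transcreener GDP mix added; fluorescence polarization (620/688 nm) read before and after 90 min at 30 °C.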
% is set by controls: 0 for no effect and ±100 for the full control effect; potency is the fitted concentration of half-maximal effect; tags give direction and shape of the fitted curve.
Note: nearly all actives have a fitted effect of over 75% in size.

Sequence of UniProt P49798 (P49798 whole entry, looked up): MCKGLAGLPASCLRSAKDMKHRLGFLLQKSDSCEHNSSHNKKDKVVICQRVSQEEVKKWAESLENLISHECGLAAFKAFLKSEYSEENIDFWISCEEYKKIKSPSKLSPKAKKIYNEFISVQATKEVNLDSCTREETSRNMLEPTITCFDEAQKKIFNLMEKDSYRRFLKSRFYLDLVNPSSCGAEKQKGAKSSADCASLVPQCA

SMILES | Potency | activity change, negative = inhibition
COc1cc(Nc2nc(SCC(=O)c3ccc(Br)cc3)nc3ccccc23)cc(OC)c1 | inconclusive: 44.7 µM [inhibitor, partial curve, poor fit] | –
CCOC(=O)c1ccc(N2C(=O)C=CC2=O)cc1 | inconclusive: 28.2 µM [inhibitor, full curve, poor fit] | –
S=C1NC2=C(CCC/C2=C\c2ccccc2)C(c2ccccc2)N1 (stereo unspecified) | inconclusive: 50.1 µM [inhibitor, partial curve, poor fit] | –
C=CCNC(=S)Nc1ccc2nsnc2c1 | – | inactive: 6.24%
COc1ccc(CNC(=O)c2cc(C3CC3)nc3c2cnn3C(C)C)cc1 | – | inactive: -7.31%
Cc1nc(NC(=O)CCc2ccccc2)sc1C | inconclusive: 56.2 µM [inhibitor, partial curve, poor fit] | –
COc1ccccc1/C=C/C=N/NC(=O)CCn1cnc2ccccc21 | – | inactive: 18.3%
O=CN/C=C/c1cc(O)ccc1O | inconclusive: 50.1 µM [inhibitor, partial curve, poor fit] | –
COc1ccc(N=C2C(=S)N(c3ccc(OC)cc3)C(=NS(=O)(=O)c3ccccc3)N2c2ccccc2)cc1 | inconclusive: 50.1 µM [inhibitor, partial curve, poor fit] | –
CC(=O)N1CCN(c2ccc(NCc3ccc(C(C)C)cc3)cc2)CC1 | inconclusive: 79.4 µM [inhibitor, partial curve, poor fit] | –
CCC(C)(C)n1nnnc1CN1CCN(c2nc3ccc(C)cc3cc2C#N)CC1 | inconclusive: 44.7 µM [inhibitor, partial curve, poor fit] | –
Cc1occc1C(=O)NNC(=O)Nc1ccc(Cl)c(Cl)c1 | inconclusive: 28.2 µM [inhibitor, full curve, poor fit] | –
O=C(/C=C/c1ccccc1[N+](=O)[O-])c1ccccc1Br | inconclusive: 50.1 µM [inhibitor, partial curve, poor fit] | –
CC(C)(C)c1ccc(-c2nnc3sc(-c4ccncc4)nn23)cc1 | inconclusive: 79.4 µM [inhibitor, partial curve, poor fit] | –
Cc1ccc(/C=C/C(=O)NCc2ccc(S(N)(=O)=O)cc2)o1 | inconclusive: 20 µM [inhibitor, full curve, poor fit] | –
COc1ccc(CN=Cc2c(O)[nH]c3ccccc23)cc1 | inconclusive: 50.1 µM [inhibitor, partial curve, poor fit] | –
CO/N=C/C(=N\Nc1ccc(OC)cc1)C(=O)c1ccc(F)cc1 | inconclusive: 70.8 µM [inhibitor, partial curve, poor fit] | –
COC(=O)Cc1ccc(O)c(N)c1 | inconclusive: 39.8 µM [inhibitor, partial curve, poor fit] | –
CC(C)(C=O)C1=CC(=O)c2ccccc2C1=O | – | inactive: -130%
O=C(c1ccc(-c2cccc(Cl)c2)o1)N1CCN(c2ccc([N+](=O)[O-])cc2)CC1 | inconclusive: 50.1 µM [inhibitor, partial curve, poor fit] | –
CCn1c(SCC(=O)c2ccc3c(c2)OCCO3)nnc1C(C)C | inconclusive: 17.8 µM [inhibitor, full curve, poor fit] | –
Cn1cc(C(=O)N/N=C/c2ccc(Br)c([N+](=O)[O-])c2)c2ccccc21 | – | inactive: -21.2%

SMILES | Potency | activity change, negative = inhibition
Cc1ccc(NC(=O)c2oc3ccccc3c2NC(=O)C2CC2)cc1 | – | inactive: -13.3% [at 56.9 µM]
CCc1ccc(C(=O)c2cn(CC(=O)Nc3ccc4c(c3)OCO4)c3ccc(OC)cc3c2=O)cc1 | inconclusive: 56.2 µM [inhibitor, partial curve, poor fit] | –
NC(=O)c1cc(NC(=O)COC(=O)CCCN2C(=O)c3cccc4cccc(c34)C2=O)cc(C(N)=O)c1 | inconclusive: 89.1 µM [inhibitor, single point] | –
COc1ccc(NC(=O)CN(c2cc(C)cc(C)c2)S(=O)(=O)c2c(C)noc2C)cc1OC | inconclusive: 56.2 µM [inhibitor, partial curve, poor fit] | –
COc1cccc(NC(=O)c2cc(-c3ccc(C)o3)nc3ccccc23)c1 | inconclusive: 89.1 µM [inhibitor, single point] | –
CCc1ccc2occ(CC(=O)Nc3ccccc3C(F)(F)F)c2c1 | – | inactive: -27%
Cc1ccc2nc(-c3cccc(-c4nc5ccc(C)cc5o4)n3)oc2c1 | inconclusive: 35.5 µM [inhibitor, partial curve, poor fit] | –
CCCn1c(SCC(=O)N2c3ccc(F)cc3CCC2C)nnc1-c1ccccn1 (stereo unspecified) | inconclusive: 56.2 µM [inhibitor, partial curve, poor fit] | –
CCCc1cc(C(=O)N/N=C/c2ccc(CC)s2)c2ccccc2n1 | inconclusive: 100 µM [inhibitor, single point] | –
O=C1C2C3CCCC3=C3CCCC3C2C(=O)N1c1ccc(Cl)cc1 (stereo unspecified) | – | inactive: -6.42%
CCOC(=O)Cc1csc(N/C(=N/S(=O)(=O)c2ccc(Cl)cc2)c2ccccc2)n1 | inconclusive: 35.5 µM [inhibitor, partial curve, poor fit] | –
CCOC(=O)N1CCC(NC(=O)c2ccc3c(c2)N(CC)CCS3)CC1 | inconclusive: 89.1 µM [inhibitor, partial curve, poor fit] | –
CCOC(=O)c1c(-c2ccc(C)cc2)csc1NC(=O)c1cc(=O)c2ccc(C)cc2o1 | – | inactive: 16.9%
CC(=O)Oc1cc2cccc(OC(C)=O)c(=O)c2c(OC(C)=O)c1OC(C)=O | inconclusive: 35.5 µM [inhibitor, partial curve, poor fit] | –
Nc1cc(=O)nc(SCC(=O)Nc2cccc3ccccc23)n1CCc1ccccc1 | inconclusive: 79.4 µM [inhibitor, single point] | –
Cc1ccccc1OCc1nc2ccc(S(=O)(=O)N3CCOCC3)cc2[nH]1 | inconclusive: 79.4 µM [inhibitor, partial curve, poor fit] | –
Oc1ccc(CNc2ccccc2F)c2cccnc12 | – | inactive: -41.4%
Clc1ccc(Cn2c(/C=C/c3ccco3)nc3ccccc32)cc1 | inconclusive: 79.4 µM [inhibitor, partial curve, poor fit] | –
Cc1ccc(NS(=O)(=O)c2cccc(C(=O)NCC(c3ccco3)N3CCCC3)c2)cc1 (stereo unspecified) | – | inactive: 7.69%
COc1ccccc1-c1cc(-c2ccc(C)cc2)nc(SCc2nnc(-c3ccccc3)o2)c1C#N | inconclusive: 79.4 µM [inhibitor, partial curve, poor fit] | –
O=C(O)C1CC=CCC1C(=O)N1CCN(c2nc(-c3ccccc3Cl)c3cc(Br)ccc3n2)CC1 (stereo unspecified) | inconclusive: 89.1 µM [inhibitor, single point] | –
O=C(N/N=C/c1ccc(OC(F)F)cc1)c1ccc(Br)cc1 | inconclusive: 79.4 µM [inhibitor, partial curve, poor fit] | –

SMILES | Potency | activity change, negative = inhibition
COc1ccc(-c2cc(C(F)(F)F)nc(S(=O)(=O)CCCC(=O)Nc3cccnc3Cl)n2)cc1OC | inconclusive: 56.2 µM [inhibitor, partial curve, poor fit] | –
CC1CC=CC2C1C(=O)N(Cc1ccccc1)C2c1ccc(-c2ccoc2)cc1F (stereo unspecified) | inconclusive: 50.1 µM [inhibitor, single point] | –
COc1ccc(/C=C/C(=O)Nc2ccc(N3CCOCC3)cc2)cc1 | – | inactive: -5%
CCOC(=O)c1c(NC(=O)c2cc(-c3cccc(OC)c3)on2)sc2c1CCCC2 | inconclusive: 20 µM [inhibitor, full curve, poor fit] | –
CCCC(C)NC(=O)c1cccc(Oc2ccccc2)c1 (stereo unspecified) | – | inactive: 16.5%
CCOC(=O)N1CCN(Cc2ccccn2)CC1 | – | inactive: -22.3%
CCOC(=O)c1c(-c2cccs2)csc1NC(=O)CN1CC(C)OC(C)C1 (stereo unspecified) | – | inactive: -8.65%
CC(C)Oc1ccc(Cc2cnc(=S)[nH]c2N)cc1 | inconclusive: 10 µM [inhibitor, full curve, poor fit] | –
COc1ccc(NC(=O)c2noc3c2CCCC3)cc1Cl | – | inactive: 5.6%
CC(=O)N1CCc2cc(S(=O)(=O)CCC(=O)N3CCN(c4cccc(C)c4C)CC3)ccc21 | inconclusive: 79.4 µM [inhibitor, single point] | –
O=C(CN1C2=NCCCN2c2ccccc21)c1cccc(Br)c1 | inconclusive: 31.6 µM [inhibitor, full curve, poor fit] | –
CCC(=O)NC(c1ccccc1)c1c(OC(C)=O)ccc2ccccc12 (stereo unspecified) | – | inactive: 17.3%
O=C(O)CCCC[C@@H]1SC[C@@H]2NC(=O)N[C@@H]21 | – | inactive: 10.3%
Cc1cc(Cl)ccc1OCc1n[nH]c(=S)n1C1CCCCC1 | – | inactive: -39.3% [at 56.9 µM]
COc1cc(C2Oc3ccccc3C=C2[N+](=O)[O-])cc(OC)c1OC (stereo unspecified) | inconclusive: 31.6 µM [inhibitor, full curve, poor fit] | –
Nc1ccc(-c2cc(N)n(-c3ccccc3)n2)cc1 | inconclusive: 44.7 µM [inhibitor, partial curve, poor fit] | –
COC(=O)CSc1cc(C)nc2ccc(OC)cc12 | inconclusive: 79.4 µM [inhibitor, single point] | –
O=c1[nH]c(/C=C/c2ccccc2)c([N+](=O)[O-])c(=O)[nH]1 | – | inactive: -47.7%
CC1COc2c(N3CCN(C)CC3)c(F)cc3c(=O)c(C(=O)O)cn1c23 (stereo unspecified) | inactive | –
Cc1ccc(CSc2nnc(-c3ccc(NS(=O)(=O)c4ccccc4)cc3)o2)cc1 | – | inactive: 6.32%
O=C(CSc1nccn1-c1ccc(F)cc1)Nc1ccc2c(c1)OCO2 | inconclusive: 79.4 µM [inhibitor, single point] | –
O=C(Nc1ccc(-c2cn3ccccc3n2)cc1)c1cccs1 | inconclusive: 20 µM [inhibitor, full curve, poor fit] | –
